Source: patent US20170327588A1 (AstraZeneca / MedImmune, published 2017)

Tests used:
human CD40 on cells [1] = biological target: T1, human CD40 on cells (human, UniProt P25942 21-277); experiment: cell-based or functional assay
human CD40 on cells [2] = biological target: T1, human CD40 on cells; experiment: cell-based or functional assay; remark: listed apart in the source
human CD40 on cells [3] = biological target: T1, human CD40 on cells; experiment: cell-based or functional assay; remark: listed apart in the source
rhGITR (hIgG1 Fc) = biological target: T2, rhGITR (hIgG1 Fc) (human, UniProt Q9Y5U5 26-161); experiment: ELISA, receptor coated at 5 ug/mL, FP6 detected with anti-human IgG4-HRP
T2 construct: Bought from R&D Systems; also called recombinant human GITR Fc chimera; not shown: human IgG1 Fc
T2 sequence (looked up): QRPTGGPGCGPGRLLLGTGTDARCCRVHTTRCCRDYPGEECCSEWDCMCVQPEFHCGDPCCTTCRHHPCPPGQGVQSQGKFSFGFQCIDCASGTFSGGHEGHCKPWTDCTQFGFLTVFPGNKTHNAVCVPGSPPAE

rhOX40 (hIgG1 Fc) = biological target: T3, rhOX40 (hIgG1 Fc) (human, UniProt P43489 29-216); experiment: as above
T3 construct: Bought from R&D Systems; also called recombinant human OX40 Fc chimera; not shown: human IgG1 Fc
T3 sequence (looked up): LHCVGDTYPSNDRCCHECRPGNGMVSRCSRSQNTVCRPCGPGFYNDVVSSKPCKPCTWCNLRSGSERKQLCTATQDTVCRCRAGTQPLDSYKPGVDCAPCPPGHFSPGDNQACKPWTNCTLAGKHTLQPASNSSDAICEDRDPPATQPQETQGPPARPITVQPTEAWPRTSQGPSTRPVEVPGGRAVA

rhTRAIL = biological target: T4, rhTRAIL (human, UniProt P50591 114-281, limits assumed); experiment: ELISA, rhTRAIL coated at 5 ug/mL, FP6 detected with anti-human IgG4-HRP
T4 construct: It is not clear whether a TRAIL receptor was meant; also called recombinant human TRAIL (no Fc component)

human CD40 on cells [4] = biological target: T1, human CD40 on cells; experiment: cell-based or functional assay; remark: listed apart in the source

T1 sequence (P25942 21-277 limits assumed): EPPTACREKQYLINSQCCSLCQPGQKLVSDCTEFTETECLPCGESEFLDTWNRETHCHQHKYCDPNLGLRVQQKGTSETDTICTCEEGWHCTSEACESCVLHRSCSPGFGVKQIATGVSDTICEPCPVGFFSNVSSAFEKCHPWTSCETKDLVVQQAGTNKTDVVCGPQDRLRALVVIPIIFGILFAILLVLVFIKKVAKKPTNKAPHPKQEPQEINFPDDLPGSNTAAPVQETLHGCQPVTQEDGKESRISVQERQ
Sequence of rhTRAIL (P50591 114-281 limits assumed): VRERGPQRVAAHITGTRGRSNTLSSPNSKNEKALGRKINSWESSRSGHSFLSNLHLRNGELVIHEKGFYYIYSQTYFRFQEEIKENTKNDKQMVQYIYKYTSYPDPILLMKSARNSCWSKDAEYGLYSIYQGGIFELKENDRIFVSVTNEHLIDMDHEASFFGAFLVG

- EC50 (nM), CD80 surface marker on human MoDC (FACS) (human CD40 on cells [1]): 0.813 nM
- EC50 (nM), CD83 surface marker on human MoDC (FACS) (human CD40 on cells [1]): 0.234 nM
- EC50 (nM), CD86 surface marker on human MoDC (FACS) (human CD40 on cells [1]): 0.447 nM
- EC50 (nM), HLA-ABC surface marker on human MoDC (FACS) (human CD40 on cells [1]): 0.988 nM
- EC50 (nM), HLA-DR surface marker on human MoDC (FACS) (human CD40 on cells [1]): 0.473 nM
- IC50, HEK293 human CD40 NFkB Luciferase reporter assay (stability samples) (human CD40 on cells [2]): 0.1 to 0.2 nM
- EC50 (nM), HuCD40 293 HEK NFkB c3 luciferase reporter cells (human CD40 on cells [3]): 0.21 nM
- binding result (rhGITR (hIgG1 Fc)): no binding (tested: 20 nM)
- binding result (rhOX40 (hIgG1 Fc)): no binding (tested: 20 nM)
- binding result (rhTRAIL): no binding (tested: 20 nM)
- EC50 (nM), Ramos-Blue NFkB/AP-1 reporter B cells (human CD40 on cells [4]): 0.0715 nM
B1: scCD40L-IgG4P-FP6 (MEDI5083) (Fc fusion)
chain: NPQIAAHVISEASSKTTSVLQWAEKGYYTMSNNLVTLENGKQLTVKRQGLYYIYAQVTFCSNREASSQAPFIASLWLKSPGRFERILLRAANTHSSAKPCGQQSIHLGGVFELQPGASVFVNVTDPSQVSHGTGFTSFGLLKLGGGGSGGGSQIAAHVISEASSKTTSVLQWAEKGYYTMSNNLVTLENGKQLTVKRQGLYYIYAQVTFCSNREASSQAPFIASLWLKSPGRFERILLRAANTHSSAKPCGQQSIHLGGVFELQPGASVFVNVTDPSQVSHGTGFTSFGLLKLGGGGSGGGSQIAAHVISEASSKTTSVLQWAEKGYYTMSNNLVTLENGKQLTVKRQGLYYIYAQVTFCSNREASSQAPFIASLWLKSPGRFERILLRAANTHSSAKPCGQQSIHLGGVFELQPGASVFVNVTDPSQVSHGTGFTSFGLLKLGGGGSGGGGSGGGGS[human IgG4 Fc with S228P (EU numbers) not given here]
notes: also called FP6 C194W; FP6 CD40L fusion protein
